According to PubChem BioAssay AID1460 (National Center for Advancing Translational Sciences (NCATS), 2008):
The campaign covered roughly 270,000 compounds. About 5,800 (2.1%) were called active. The shares of active, inactive and inconclusive entries below differ from those in the screen. Calls follow the shape of the dose curve; as a rule, active = well fitted inhibition curve with a large enough effect; inconclusive = small, poorly fitted or top-dose-only effect; inactive = flat fitted curve, though single readings scatter. Potencies of inconclusive entries are doubtful fits and often do not repeat.

target: Microtubule-associated protein tau (Homo sapiens) (UniProt P10636); assay: qHTS for Inhibitors of Tau Fibril Formation, Thioflavin T Binding; settings: recombinant tau K18 P301L (four-repeat tau fragment), heparin-induced fibrillization, ThT fluorescence; series mostly up to 57.4 µM; activity, negative = inhibition: at the top concentration; also: nearly all actives have a fitted effect of over 55% in size
In short: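 Recombinant human tau K18 fragment […] carrying P301L, 15 uM unlabeled plus 0.24 uM Alexa 594-labeled, was fibrillized with 20 uM heparin in 100 mM sodium acetate pH 7 for 6 hr at 37 C; 30 uM ThT fluorescence read after 1 hr.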
% is scaled to controls: 0 for no effect and ±100 for the full control effect; potency is read from the fitted curve at half-maximal effect; tags tell the direction and shape of the fitted curve.

Chain of UniProt P10636 (P10636 whole entry, looked up, the tested form may be a part): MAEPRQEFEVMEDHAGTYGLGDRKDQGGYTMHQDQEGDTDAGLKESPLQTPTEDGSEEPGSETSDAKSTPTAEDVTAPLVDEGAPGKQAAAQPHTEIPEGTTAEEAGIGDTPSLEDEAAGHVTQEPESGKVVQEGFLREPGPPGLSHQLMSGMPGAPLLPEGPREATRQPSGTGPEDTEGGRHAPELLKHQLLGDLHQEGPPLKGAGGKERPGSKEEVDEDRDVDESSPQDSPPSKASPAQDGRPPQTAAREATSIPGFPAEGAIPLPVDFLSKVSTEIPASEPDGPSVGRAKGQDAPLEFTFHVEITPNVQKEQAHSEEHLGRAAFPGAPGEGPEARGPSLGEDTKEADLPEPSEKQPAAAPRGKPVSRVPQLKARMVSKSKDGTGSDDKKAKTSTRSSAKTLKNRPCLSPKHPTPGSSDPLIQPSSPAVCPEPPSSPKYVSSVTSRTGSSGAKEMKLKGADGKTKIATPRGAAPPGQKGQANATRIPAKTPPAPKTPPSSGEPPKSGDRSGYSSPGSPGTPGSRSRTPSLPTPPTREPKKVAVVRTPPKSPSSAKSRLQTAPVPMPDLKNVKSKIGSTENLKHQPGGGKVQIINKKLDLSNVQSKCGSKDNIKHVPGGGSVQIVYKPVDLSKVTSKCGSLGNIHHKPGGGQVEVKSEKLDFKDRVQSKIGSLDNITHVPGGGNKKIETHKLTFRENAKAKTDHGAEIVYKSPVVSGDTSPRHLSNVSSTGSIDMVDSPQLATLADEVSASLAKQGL

Q: Which Potency does the source give for `Cc1cc(/C=C2/C(=O)N(C)C(=S)N2C)ccc1N1CCCC1` here?
A: active: 3.98 µM

Q: `O=C(COc1ccc2ccccc2c1)Nc1cccc(C(=O)Nc2ccccc2C(=O)O)c1` was tested. Which “activity, negative = inhibition” value did it give?
A: inactive: 12.4%

Q: How did the “activity, negative = inhibition” value turn out when `COc1ccc(CN2CCNC(=O)C2CC(=O)NCCCn2cccn2)c(OC)c1` (stereo not drawn) was run?
A: inactive: -9.58%

Q: How did the “activity, negative = inhibition” value turn out when `COc1cc(C2c3c(oc4ccc(F)cc4c3=O)C(=O)N2c2nc(C)c(C)s2)cc(OC)c1OC` (stereo not drawn) was run?
A: inactive: -8.16%

Q: `CNC(=O)CSc1nnnn1-c1cc(C)ccc1C` was tested. Which “activity, negative = inhibition” value did it give?
A: inactive: -2.76%

Q: With `Cc1ccc(OCC(=O)Sc2ccc(C)cc2)cc1` as the compound, how does the Potency read?
A: inconclusive: 12.6 µM [inhibitor, partial curve]

Q: For `COc1ccc(/C=N/Nc2cn[nH]c(=O)c2Cl)cc1`, which Potency is on record?
A: inconclusive: 20 µM [inhibitor, partial curve]

Q: `COc1ccc(C)cc1NC(=O)COCc1cc(-c2cccs2)on1` was tested. Which Potency did it give?
A: inconclusive: 31.6 µM [inhibitor, single point]

Q: With `O=C(COc1ccc(F)cc1Br)N1CCc2ccccc21` as the compound, how does the Potency read?
A: inconclusive: 2.51 µM [inhibitor, full curve]

Q: `CCN(CC)S(=O)(=O)c1nnc(NC(=O)c2ccccc2Cl)s1` was tested. Which Potency did it give?
A: inconclusive: 8.91 µM [inhibitor, partial curve]

Q: `COc1ccc(NS(=O)(=O)/C=C/c2ccccc2)cc1` was tested. Which “activity, negative = inhibition” value did it give?
A: inactive: -5.37%

Q: How did the “activity, negative = inhibition” value turn out when `Cc1ccccc1NC(=O)c1c(C)oc2ccc(O)c(CN3CCCC3)c12` was run?
A: inactive: -9.16%

Q: With `O=C(NCc1ccco1)c1ccccc1-c1ccccc1` as the compound, how does the “activity, negative = inhibition” value read?
A: inactive: -15.9%

Q: `COc1cc(OC)cc(C(=O)Nc2ccc3oc(-c4ccccc4C)nc3c2)c1` was tested. Which Potency did it give?
A: inconclusive: 0.891 µM [inhibitor, full curve, poor fit]

Q: For `CCOc1ccccc1Nc1sc(C(=O)c2ccccc2)c(N)c1C(=O)NCCc1ccccc1`, which Potency is on record?
A: inconclusive: 17.8 µM [inhibitor, single point]

Q: How did the Potency turn out when `N#Cc1cc2c([nH]c1=S)CCCC2` was run?
A: inconclusive: 10 µM [inhibitor, partial curve]

Q: How did the “activity, negative = inhibition” value turn out when `COc1cc(NC(=O)CSc2nc3ccccc3nc2Cc2ccccc2OC)cc(OC)c1` was run?
A: inactive: 6.23%

Q: `CCN(CC)C(=O)CSC1=Nc2ccccc2C2=NC(Cc3c[nH]c4ccccc34)C(=O)N12` (stereo not drawn) was tested. Which “activity, negative = inhibition” value did it give?
A: inactive: -13.2%

Q: For `CSC(=Nc1ccccc1)C1=C(O)COC1=O`, which “activity, negative = inhibition” value is on record?
A: inactive: -8.25%

Q: `[O-][n+]1c2c(c3c4non(O)c4ccc31)CCCC2` was tested. Which Potency did it give?
A: active: 14.1 µM

Q: Which “activity, negative = inhibition” value does the source give for `O=C(c1csc(Nc2ccccc2Cl)n1)N1CCCC1` here?
A: inactive: -15.4%

Q: `Cc1nn2c(C)c(C(=O)N3CCN(c4ccccc4)CC3)cnc2c1-c1ccccc1` was tested. Which “activity, negative = inhibition” value did it give?
A: inactive: -11.4%

Q: How did the Potency turn out when `COc1ccc(CNC(=O)c2c(Nc3ccc(OC)cc3OC)sc(C(=O)c3ccc(Cl)cc3)c2N)cc1` was run?
A: inconclusive: 25.1 µM [inhibitor, single point]
